Publication PMC4336329 (PLoS ONE, 2015)
Out of some 310,000 compounds screened, about 2,200 (0.71%) showed an effect of 50% or more. Effects have a minus sign here. The list shows a part of the results.

biological target: human ether-à-go-go-related gene (hERG) potassium channel (human, UniProt Q12809); assay: primary screen, population patch clamp on CHO cells stably expressing hERG
Sequence (Q12809 whole entry, looked up): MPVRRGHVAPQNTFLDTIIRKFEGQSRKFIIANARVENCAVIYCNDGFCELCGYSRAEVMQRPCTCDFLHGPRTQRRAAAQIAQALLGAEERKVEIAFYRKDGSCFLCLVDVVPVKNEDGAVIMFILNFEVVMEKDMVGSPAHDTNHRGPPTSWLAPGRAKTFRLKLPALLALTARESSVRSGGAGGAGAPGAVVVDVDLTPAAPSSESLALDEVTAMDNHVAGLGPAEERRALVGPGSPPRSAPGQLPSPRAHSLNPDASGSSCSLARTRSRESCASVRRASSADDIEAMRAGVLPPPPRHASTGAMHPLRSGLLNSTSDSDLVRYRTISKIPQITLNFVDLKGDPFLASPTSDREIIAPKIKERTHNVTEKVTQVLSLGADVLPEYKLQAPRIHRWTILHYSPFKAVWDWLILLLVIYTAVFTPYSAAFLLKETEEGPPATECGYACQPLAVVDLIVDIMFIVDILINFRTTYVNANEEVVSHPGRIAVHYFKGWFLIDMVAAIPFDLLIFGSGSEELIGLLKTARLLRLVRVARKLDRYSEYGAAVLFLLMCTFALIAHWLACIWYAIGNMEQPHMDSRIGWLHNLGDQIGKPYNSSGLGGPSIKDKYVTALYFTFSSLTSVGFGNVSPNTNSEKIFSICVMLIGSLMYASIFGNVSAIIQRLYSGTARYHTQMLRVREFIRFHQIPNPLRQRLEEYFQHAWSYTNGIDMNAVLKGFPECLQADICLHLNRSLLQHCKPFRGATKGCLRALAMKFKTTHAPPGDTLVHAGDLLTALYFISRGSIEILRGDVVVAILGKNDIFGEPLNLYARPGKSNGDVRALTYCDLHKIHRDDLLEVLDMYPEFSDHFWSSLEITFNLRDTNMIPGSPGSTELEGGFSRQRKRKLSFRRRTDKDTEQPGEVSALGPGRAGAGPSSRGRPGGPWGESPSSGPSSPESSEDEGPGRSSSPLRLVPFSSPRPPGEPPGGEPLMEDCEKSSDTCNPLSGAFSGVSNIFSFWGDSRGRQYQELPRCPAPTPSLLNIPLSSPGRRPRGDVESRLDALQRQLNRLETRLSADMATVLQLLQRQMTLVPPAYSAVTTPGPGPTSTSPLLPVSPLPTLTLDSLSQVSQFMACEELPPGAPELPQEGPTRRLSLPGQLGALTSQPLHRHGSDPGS

SMILES | hERG current change (%, negative = inhibition) at 1uM
COc1ccc(CCNC(=O)COc2ccc(S(=O)(=O)NCC(C)C)cc2Cl)cc1OC | 4.07%
COc1ccccc1-n1nnnc1SCC(=O)Nc1ccccn1 | 11.6%
Cc1ccc(C)c(OCCC(=O)OCC(=O)N(C)c2c(N)n(Cc3ccccc3)c(=O)[nH]c2=O)c1 | 1.98%
O=C(Nc1ccc(OC(F)F)c(Cl)c1)C(c1ccccc1)c1ccccc1 | 0.293%
O=C(Nc1ccc(S(=O)(=O)N2CCCCC2c2cccnc2)cc1)c1ccccc1F (stereo not drawn) | 7.3%
CC(OC(=O)C1CCCCC1)C(=O)Nc1cccc(Cl)c1 (stereo not drawn) | -12%
O=C(NCC1CC1)c1ccc(Oc2cc(Cl)cc(Cl)c2)o1 | 8.8%
COc1ccc(NC(=O)Nc2c(C)n(-c3ccccc3)c(=O)n2C)cc1OC | 3.89%
Cc1nn(-c2ccccc2)c2[nH]c(=O)c(CNc3ccc4c(c3)OCCO4)cc12 | 7.53%
O=C(CN1C(=O)COc2ccccc21)N(Cc1cccnc1)Cc1ccccc1F | -18.7%
Cc1c(C(=O)N2CCCC2)c(S(=O)(=O)NCC(C)c2ccccc2)c(C)n1C (stereo not drawn) | 7.13%
CCOP(=O)(OCC)C(Nc1cccc([N+](=O)[O-])c1)c1ccc(N(C)C)cc1 (stereo not drawn) | 9.47%
COc1ccc(CCNC(=O)Cn2c(=O)oc3ccccc32)cc1OC | 3.42%
C=CCn1cnc2c(NCc3ccccc3)ncnc21 | 13%
CC(C)N1C(=O)C2C(C(=O)NCc3ccccc3)C3C=CC2(O3)C1C(=O)NC(C)(C)C (stereo not drawn) | 9.95%
O=C1COc2cccnc2N1 | 6.15%
Cc1cc2c(cc1S(=O)(=O)NCc1ccc(Cl)cc1)OCC(=O)N2 | -25%
COC(=O)c1ccc(C)c(N(CCO)CCO)c1 | -8.11%
COc1ccc(/C(C)=N\Nc2nc(-c3ccccc3)cc(=O)[nH]2)cc1 | 11.7%
COc1ccc(OC(=O)Nc2ccc([N+](=O)[O-])cc2OC)cc1 | 15%
Cc1nc2ccccc2c(=O)n1-c1ccc(Br)cc1[N+](=O)[O-] | 3.13%
COc1ccc(C(=O)Cc2cc(OC)c(OC)cc2[N+](=O)[O-])c(OC)c1 | 11.4%
Cc1ccccc1OCCNC(=O)/C=C/c1ccccc1 | 1.43%

SMILES | hERG current change (%, negative = inhibition) at 1uM
Cc1ccc(NC(=O)C(C)N2CCc3ccccc3C2)cc1 (stereo not drawn) | 8.24%
COc1ccc(C2c3[nH]c4ccccc4c3CCN2C(=O)c2ccccc2C(C)=O)c(F)c1 (stereo not drawn) | 12.8%
CC(C)(C)c1ccc(N2C(=N)SCC2=O)cc1 | 8.31%
O=C1CC2(CCCCCC2)Oc2ccccc21 | 0.318%
O=c1c2ccccc2nc(-c2ccc(-c3ccccc3)cc2)n1-c1ccncc1 | -20.6%
CCN(CC)CCN1C(=O)C2C(C(=O)Nc3cccc(SC)c3)C3C=CC2(O3)C1C(=O)NC1CCCC(C)C1C (stereo not drawn) | -3.79%
CC(=O)Nc1ccc(S(=O)(=O)N2c3ccc(F)cc3CCC2C)cc1 (stereo not drawn) | -2.99%
CCOc1ccc(/C(O)=C/C(=O)C(=O)Nc2ccc(S(=O)(=O)NC(C)=O)cc2)cc1 | 15.2%
Cc1ccc(C(=O)OCC(=O)Nc2ccccc2Sc2ccccc2)cc1C | 4.69%
Cc1ccc(C2CC(c3ccco3)n3nc(N)nc3N2)cc1 (stereo not drawn) | 0.0243%
CN1C(=O)C(=O)/C(=C(/O)c2ccc(Br)cc2)C1c1ccccc1F (stereo not drawn) | 4.83%
C(#CCN1CCOCC1)COC(c1ccccc1)c1ccccc1.Cl | 18.4%
CCOc1ncccc1C(=O)OCC(=O)c1cc(OC)ccc1OC | 3.18%
O=C(NCCCn1ccnc1)c1cn(-c2ccccc2)nc1-c1ccc(F)cc1 | -18.4%
CCOC(=O)COc1cc(-n2c(=S)[nH]c3ccccc3c2=O)c(Cl)cc1Cl | 0.776%
CCOC(=O)c1csc(NC(=O)C2CCCCC2)n1 | 7.88%
Cc1ccc(C(=O)NC2CCc3ccccc3C2=O)cc1 (stereo not drawn) | 12%
C[C@H](NC(=O)N1CCn2c1nc1ccccc12)C(=O)NCc1ccco1 | 7.66%
Cc1cccc(C(=O)NCCN2CCCC2)c1.Cl | 7.66%
C/C(N=Nc1nc2ccccc2s1)=N\Nc1ccccc1O | 10.2%
CN(CC(=O)NCCCN1CCOCC1)S(=O)(=O)c1ccc(Br)cc1 | 0.879%
COc1ccc(/C=C2\SC(=NCc3ccccc3)NC2=O)cc1 | 0.872%
Cc1ccc(S(=O)(=O)NC2CC(C)(C)NC(C)(C)C2)c(C)c1C | 10.9%

SMILES | hERG current change (%, negative = inhibition) at 1uM
O=C(CCc1nnc(CCCCc2ccccc2)o1)NCc1cc(F)ccc1F | 4.95%
C=CCc1cccc2cc(C(=O)Nc3ccc(CC(=O)O)cc3)c(=O)oc12 | 11.6%
Cc1cccc(NC(=O)Nc2cc(C)cc(C)n2)c1 | 12.5%
O=C(CSc1ccc(-c2ccco2)nn1)Nc1ccccc1 | -11.7%
Oc1[nH]c2ccccc2c1N=Nc1cccc(Cl)c1 | 11.4%
CC1(C)C(=O)N(c2ccccc2)C(=O)c2ccccc21 | 11.5%
COc1cc(NC(=O)Nc2cccc3cccnc23)cc(OC)c1OC | 11.6%
O=c1cc(NS(=O)(=O)c2ccccc2)nc(SCc2ccc(Cl)cc2)[nH]1 | 12.8%
CCOC(=O)N1CCN(C(=O)Cn2ccc3ccccc3c2=O)CC1 | -2.58%
Cc1cc(C(=O)COc2ccc(Br)cc2F)c(C)n1C1CC1 | 3.09%
O=C(CCCN1C(=O)c2ccccc2C1=O)NCCCn1ccnc1 | 22.3%
COc1ccc(C(=O)CCC(=O)O)c(C)c1 | 8.99%
Clc1ccc(-c2nnc3sc(Cc4cccs4)nn23)c(Cl)c1 | 5.07%
CCOc1ccc(NC(=S)N(CCc2c(C)[nH]c3ccccc23)Cc2ccco2)cc1 | 8.37%
CCC(c1nnnn1CCc1ccccc1)N(Cc1ccco1)Cc1cc2cc(C)cc(C)c2[nH]c1=O (stereo not drawn) | 6.06%
CSc1oc(-c2ccccc2)nc1S(=O)(=O)c1ccc(C)cc1 | 3.2%
O=C(NNC(=O)c1ccc(Br)o1)c1ccc(NC(=O)c2ccccc2)cc1 | 20%
CCCNC(=O)C(=O)Nc1ccc(N(C)C)cc1 | 13.8%
CCC(C)N=Cc1c(Nc2ccccc2)nc2c(C)cccn2c1=O (stereo not drawn) | 5.51%
Cc1ccc(-n2c(Cc3ccccc3)n[nH]c2=S)cc1 | 12.8%
COC(=O)C1Cc2c([nH]c3ccccc23)C(C(C)C)N1 (stereo not drawn) | 2.04%
O=S(=O)(NCCOCC(F)(F)C(F)F)c1ccc2oc3ccccc3c2c1 | 7.24%
O=C(OCc1nc2ccccc2[n+]([O-])c1C(=O)c1ccccc1)c1cccnc1 | 8.38%

SMILES | hERG current change (%, negative = inhibition) at 1uM
CCOc1cc(C(N)=O)cc(Br)c1OCC | 0.247%
Cn1nnc(NC(=S)NC(=O)c2ccc(-c3ccc(Br)cc3)o2)n1 | 7.46%
Cc1ccc(SCC(=O)OCC(=O)NCc2cccs2)cc1C | 6.86%
CCS(=O)(=O)N1Cc2ccccc2CC1C(=O)Nc1ccc(OC)c(OC)c1 (stereo not drawn) | 6.71%
c1ccc(COCCN2CCN(CCOCc3ccccc3)CC2)cc1 | -19.6%
CCN(CC)CCN(Cc1cc2cc3c(cc2[nH]c1=O)OCCO3)C(=S)NCCCOC | 10.9%
CSCCC1NC(=O)N(CC(=O)Nc2c(Cl)cc(Cl)cc2Cl)C1=O (stereo not drawn) | 5.22%
CC(Cl)C(=O)c1c(N)n(C)c(=O)n(C)c1=O (stereo not drawn) | -0.109%
C=C(C)C1CC=C(C)/C(=N/NC(=O)CNc2ccc(OCC)cc2)C1 (stereo not drawn) | 4.56%
Cc1nc2ncnn2c(N2CCN(C(=O)c3cccc(F)c3)CC2)c1C | -23.1%
COc1ccccc1N(CC(=O)Nc1ccc(S(=O)(=O)N2CCCCC2)cc1)S(C)(=O)=O | 14.5%
O=C(O)c1ccccc1C(=O)Nc1ccc(-n2nccc2C(F)(F)F)cc1 | 13.2%
COC(=O)c1ccc(NC(=O)Nc2ccc(OC)c(OC)c2)cc1 | 11.1%
CCOC(=O)C1=NN(C(C)=O)C2(CC(=O)N(c3cccc(C)c3)C2=O)C1 (stereo not drawn) | 15.6%
O=C(NCC(=O)N1CCN(C(=O)c2ccco2)CC1)c1ccccc1 | -0.437%
CC(=O)c1c(N2CCOCC2)nc2ccc(Br)cc2c1-c1ccccc1 | 5.75%
Nc1nc(=S)[nH]c2c1C1(CCCC1)Cc1ccccc1-2 | 9.51%
CC1CC(C)CN(C(=O)COC(=O)CNS(=O)(=O)/C=C/c2ccccc2)C1 (stereo not drawn) | -1.21%
NC(=O)c1ccccc1NCC(=O)c1ccc(Cl)cc1 | 11.2%
Cn1c(SCC(=O)NNC(=S)Nc2ccccc2)nnc1-c1ccncc1 | 10.8%
O=C1/C(=C/c2cccnc2)CC/C1=C\c1cccnc1 | 1.87%
